The full ranking holds about 110,000 compounds; the median of “z-score” is about -0.1, and the highest 2% start at about 2. The list shows a part of the results. Activity calls are given as the source filed them.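 The calls were made as follows: active = z-score in the third read window above 3 or below -3; inactive = the rest.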
biological target: Metabotropic glutamate receptor 8 (Rattus norvegicus) (UniProt P70579); test: rat mGluR8 modulators via GIRK flux, primary screen, cell-based, thallium flux, HTS (AID 488969); settings: HEK293 rat mGluR8, GIRK (G protein-gated inwardly rectifying potassium channel) thallium flux, FluoZin2; at 10 µM; stronger effect = higher value; submaximal glutamate (EC20) added with thallium
Chain of UniProt P70579 (P70579 whole entry, looked up): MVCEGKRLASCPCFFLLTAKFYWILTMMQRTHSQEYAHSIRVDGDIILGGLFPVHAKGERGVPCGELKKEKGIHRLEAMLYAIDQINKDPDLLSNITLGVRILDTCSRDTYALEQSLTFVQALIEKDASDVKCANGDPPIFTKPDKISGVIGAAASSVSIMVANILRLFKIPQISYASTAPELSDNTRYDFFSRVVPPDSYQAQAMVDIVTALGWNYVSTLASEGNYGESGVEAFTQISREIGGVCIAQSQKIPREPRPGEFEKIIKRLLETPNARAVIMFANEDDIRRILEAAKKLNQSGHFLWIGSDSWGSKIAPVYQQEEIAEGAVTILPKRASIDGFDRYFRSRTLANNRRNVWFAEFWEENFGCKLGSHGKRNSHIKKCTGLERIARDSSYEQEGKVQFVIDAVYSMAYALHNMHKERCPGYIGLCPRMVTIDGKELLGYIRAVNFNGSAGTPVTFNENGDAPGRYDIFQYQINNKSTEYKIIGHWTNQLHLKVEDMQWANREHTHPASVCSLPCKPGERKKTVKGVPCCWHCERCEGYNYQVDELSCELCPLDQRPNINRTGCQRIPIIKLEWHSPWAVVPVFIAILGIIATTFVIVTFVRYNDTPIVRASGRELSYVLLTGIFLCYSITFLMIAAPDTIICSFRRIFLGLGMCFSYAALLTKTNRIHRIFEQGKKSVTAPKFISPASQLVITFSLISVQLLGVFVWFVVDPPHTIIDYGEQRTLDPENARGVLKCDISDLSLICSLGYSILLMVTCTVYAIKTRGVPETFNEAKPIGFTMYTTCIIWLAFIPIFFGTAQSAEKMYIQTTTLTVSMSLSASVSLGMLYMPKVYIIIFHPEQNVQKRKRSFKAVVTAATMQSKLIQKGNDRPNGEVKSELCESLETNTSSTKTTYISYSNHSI

Row | SMILES | z-score
1 | O=C1C2C3c4ccccc4C(c4ccccc43)[C@@H]2C(=O)N1c1cccnc1 (stereo partly specified) | -0.0823
2 | Cc1cccc(NC(=O)C2c3ccccc3C(=O)N3CCc4ccccc4C23)n1 (stereo unspecified) | 0.0262
3 | O=C(Nc1ccccc1C(=O)NCC1CCCO1)c1ccco1 (stereo unspecified) | -0.0929
4 | CC1=C(C(=O)Nc2ccc(C)cc2)C(c2ccc(N(C)C)cc2)NC(=O)N1 (stereo unspecified) | -0.286
5 | CC(C)Cc1nc(C(N)=O)c2[nH]c(=O)n(-c3ccc(F)cc3)c2n1 | -0.334
6 | Cc1ccc2nc(N3C(=O)C(O)=C(C(=O)c4cc5ccccc5o4)C3c3cccs3)sc2c1 (stereo unspecified) | 0.257
7 | O=C(Cn1cnc2c(oc3ccccc32)c1=O)NCCc1ccccc1 | -1.03
8 | Cc1ccc(S(=O)(=O)Nc2ccc(NC(=O)CN3CCCCC3)c(Cl)c2)cc1 | -0.137
9 | Cc1ccc(NC(=S)NNC(=O)CCn2cc(C)cn2)cc1 | -0.254
10 | Cc1ccc(N2CCN(S(=O)(=O)N3CCCCCC3)CC2)cc1Cl | 0.295
11 | CCCCn1c(SCC(=O)NCc2ccco2)nc2c1c(=O)n(C)c(=O)n2C | 0.274
12 | O=C(Nc1ccc(-c2nc3ccccc3o2)cc1)c1ccc(N2CCOCC2)c([N+](=O)[O-])c1 | -0.0721
13 | CCOC(=O)N1CCN(C(=O)C(CC)c2ccccc2)CC1 (stereo unspecified) | -0.202
14 | CC(=O)Oc1ccc(-c2cccc(C(=O)OCC(=O)Nc3ccccc3Oc3ccccc3)c2)cc1 | -0.327
15 | CCC(C)(C)NC(=O)C(c1ccco1)N(C(=O)c1csnn1)c1cccc(F)c1 (stereo unspecified) | -0.194
16 | Cc1ccc(NC(=O)C(=O)NCCOc2ccc(Cl)cc2)c(C)c1 | -0.154
17 | COc1ccc(Cl)cc1C(=O)NNC(=O)c1cccc(S(=O)(=O)N(C)C)c1 | 0.0171
18 | Cn1c(CC(=O)Nc2ccc(Cl)c(Cl)c2)nnc1SCC(=O)Nc1nccs1 | -0.213
19 | CC(C)n1c(O)c(/C=C2\C=Nc3ccccc32)sc1=Nc1ccccc1 | 0.205
20 | Cc1ccc(-n2c(SCC(=O)c3c(N)n(C)c(=O)n(C)c3=O)nc3sc4c(c3c2=O)CCCC4)c(C)c1 | 0.0121
21 | COc1ccc(CN2CC(C(=O)NCCc3ccccc3)CC2=O)cc1 (stereo unspecified) | 0.541
22 | CC(C(=O)NCCN1C(=O)S/C(=C\c2cccnc2)C1=O)N1C(=O)c2ccccc2C1=O (stereo unspecified) | -0.258

Row | SMILES | z-score
23 | O=C(NC1CCCCC1)C(c1ccco1)N(C(=O)c1csnn1)C1CCCC1 (stereo unspecified) | 0.0116
24 | CCN(CCO)c1ncnc2c1sc1nc(CC(C)C)c3c(c12)CC(C)(C)OC3 | -0.758
25 | CC1CCN(C(=S)NC2CCCCC2)CC1 | -0.176
26 | O=C(CN(CC1CCCO1)C(=O)CNS(=O)(=O)c1ccc(Cl)cc1)NCC1CCCO1 (stereo unspecified) | 0.1
27 | CCOc1ccc(NC(=O)N(C2CCCCC2)C(C)c2cccnc2)cc1 (stereo unspecified) | 0.0145
28 | COc1ccccc1CNC(=O)c1csc(Cc2ccc(Cl)cc2)n1 | -0.161
29 | COc1ccc(-n2c(-c3cnccn3)n[nH]c2=S)cc1 | 0.268
30 | CCOC(=O)Cc1csc(NC(=O)c2ccc(S(=O)(=O)N3CCCCC3)cc2)n1 | -0.293
31 | COc1cc(NC(=O)CN2CCN(Cc3ccc4c(c3)OCO4)CC2)cc(OC)c1 | -0.258
32 | O=C(CSc1nnc(-c2ccccc2)o1)n1c2c(c3ccccc31)CCCC2 | 0.663
33 | CC(C)Oc1cc(NC(=O)CSCC(=O)Nc2cccc(C(F)(F)F)c2)c(Cl)cc1Cl | -0.183
34 | Cc1cc(C)n2nc(C(=O)Nc3nnc(C4CC4)s3)nc2n1 | -0.205
35 | COCCNC(=O)C(c1ccc(C)o1)N(Cc1ccco1)C(=O)c1snc(C(N)=O)c1N (stereo unspecified) | -0.103
36 | Cn1nc(-c2ccc(Cl)cc2)c2cc(C(=O)N3CCN(C(=O)c4ccco4)CC3)sc21 | -0.708
37 | CC(C)(C)C1CCC2(CC1)C(C#N)=C(SCC(=O)NC1CCCCC1)NC(=O)C2C#N (stereo unspecified) | -0.215
38 | N#Cc1c(-c2ccco2)nc(SCC(=O)Nc2cccc(Cl)c2)[nH]c1=O | -2.83
39 | N=C1C(=O)OCC1c1ccccc1NC(=O)CN1CCOCC1 (stereo unspecified) | -1.61
40 | CCN(CC(=O)Nc1ccccc1OC)C(=O)C1CC2C=CC1C2 (stereo unspecified) | -0.115
41 | O=C(CCn1cnc(-c2ccccc2)c1-c1ccccc1)N/N=C/c1ccc(O)cc1 | -1.15
42 | Clc1ccc(-n2nnnc2CN2CCOCC2)cc1 | -0.108
43 | Cc1c(C2Nc3ccccc3NC3=C2C(=O)CC(C)(C)C3)cnn1C (stereo unspecified) | active: 4.64
44 | COCCNC(=O)c1ccccc1NC(=O)c1ccccc1N(C)S(=O)(=O)c1ccc(C)cc1 | 0.0191

Row | SMILES | z-score
45 | CCOc1ccc(N2C(=O)NC(Cc3c[nH]c4ccccc34)C2=O)cc1 (stereo unspecified) | -0.0642
46 | O=C(CCCc1ccccc1)N1CCN(c2ccc([N+](=O)[O-])cc2)CC1 | -0.394
47 | CN(C)c1ccc(NC(=O)Cn2c(=O)n(Cc3ccccc3)c(=O)c3ccccc32)cc1 | 0.179
48 | CC(=O)OCCN1C(=O)c2cccnc2C1=O | 0.491
49 | CCN1CCN(C(=O)CCc2nc3ccccc3n2-c2ccccc2)CC1 | -0.235
50 | O=C(O)CCc1ccc(-c2cccs2)n1CC1CCCO1 (stereo unspecified) | 0.167
51 | C/C(=N\NC(N)=O)C1(C)CCCCC1 | -0.196
52 | Cn1c(SCC(=O)Nc2ccccc2F)nnc1-c1cc2ccccc2o1 | -0.145
53 | Cc1ccc(CNC(=O)COC(=O)c2ccc(Br)cc2)cc1 | -0.265
54 | COc1ccc(-c2nc(S(=O)(=O)c3ccccc3)c(N3CCOCC3)o2)cc1 | -0.0916
55 | O=C(CCC1CCCCC1)N1CCN(Cc2ccc3c(c2)OCO3)CC1 | -0.343
56 | COC(=O)[C@H](CCSC)NC(=O)Nc1cc(C)ccc1C | -0.0345
57 | CSc1oc(-c2ccc(F)cc2)nc1S(=O)(=O)c1ccc(F)cc1 | -0.541
58 | O=C(Nc1sc2c(c1C(=O)NC1CCCCC1)CCC2)c1ccco1 | -0.079
59 | COc1cc2c(cc1OC)C(C)N(C(C)=O)CC2 (stereo unspecified) | -0.56
60 | CCC(c1nnnn1C(C)(C)CC)N(CCN1CCOCC1)Cc1cc2cc(C)ccc2[nH]c1=O (stereo unspecified) | -0.326
61 | O=[N+]([O-])c1ccc(/C=N/Nc2nc(-c3ccccc3)c3cc(Br)ccc3n2)o1 | 0.0846
62 | CC1=C(C#N)C(NC(=O)c2ccc(Cl)cc2)(C(F)(F)F)C(=O)N1 (stereo unspecified) | -0.044
63 | CC(C)[C@H](NC(=O)c1ccccc1)C(=O)OCC(=O)N1CCCCCC1 | -0.315
64 | CCOc1ccc(N(CC)S(=O)(=O)c2ccc3c(c2)n(C)c(=O)c(=O)n3C)cc1 | -0.239
65 | CC1=CC(C#N)(C#N)C(C#N)(C#N)C(c2ccccc2)N1 (stereo unspecified) | -0.143
66 | O=C(COc1ncnc2sccc12)NC1CCCc2ccccc21 (stereo unspecified) | -0.199
